Publication PMC4973362
Results are given in words; binding and its absence hold for the method and conditions named. In cells and extracts the contact can be indirect. Some results given as binding are weak or reduced against the parent protein; the word gives no strength. Tags and fused reporters may be left off the sequences shown.

Protein sequences, listed by entry. Tags and fused reporters are not part of them.
UniProt Q96SW2: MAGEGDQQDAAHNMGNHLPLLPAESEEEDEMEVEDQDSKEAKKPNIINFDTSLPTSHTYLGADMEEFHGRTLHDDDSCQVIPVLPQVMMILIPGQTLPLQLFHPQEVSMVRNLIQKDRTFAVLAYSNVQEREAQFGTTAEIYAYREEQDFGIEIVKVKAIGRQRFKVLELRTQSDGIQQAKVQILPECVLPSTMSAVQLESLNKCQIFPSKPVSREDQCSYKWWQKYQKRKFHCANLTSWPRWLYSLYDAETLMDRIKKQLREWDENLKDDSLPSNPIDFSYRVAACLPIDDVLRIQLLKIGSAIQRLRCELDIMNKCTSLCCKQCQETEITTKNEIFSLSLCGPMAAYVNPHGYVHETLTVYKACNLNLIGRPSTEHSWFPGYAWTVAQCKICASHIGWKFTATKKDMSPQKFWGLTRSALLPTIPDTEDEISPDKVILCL

Experiments:
[1] = target: T1, Myc-tagged TAK1 wild type (UniProt O43318); experiment: co-IP; HEK293T cells co-transfected, extracted 38 h after transfection; immunoprecipitated with anti-Myc antibody, immunoblotted with anti-Flag or anti-Myc (Figure 3e-g)
T1 sequence: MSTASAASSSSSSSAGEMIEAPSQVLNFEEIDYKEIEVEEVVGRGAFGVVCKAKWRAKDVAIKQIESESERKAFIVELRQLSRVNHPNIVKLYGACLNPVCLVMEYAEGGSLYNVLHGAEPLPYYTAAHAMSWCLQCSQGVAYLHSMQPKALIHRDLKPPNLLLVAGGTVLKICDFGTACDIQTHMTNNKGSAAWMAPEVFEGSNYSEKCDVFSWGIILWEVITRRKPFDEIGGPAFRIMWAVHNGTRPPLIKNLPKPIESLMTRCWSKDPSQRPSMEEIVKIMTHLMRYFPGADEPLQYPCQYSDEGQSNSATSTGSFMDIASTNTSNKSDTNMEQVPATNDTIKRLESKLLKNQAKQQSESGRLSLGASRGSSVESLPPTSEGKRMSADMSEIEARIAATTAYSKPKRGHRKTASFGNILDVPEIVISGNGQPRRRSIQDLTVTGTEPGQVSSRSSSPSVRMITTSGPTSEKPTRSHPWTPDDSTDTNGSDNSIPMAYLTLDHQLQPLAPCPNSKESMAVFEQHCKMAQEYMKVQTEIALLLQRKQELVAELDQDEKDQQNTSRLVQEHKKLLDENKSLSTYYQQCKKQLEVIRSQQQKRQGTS

Myc-TAK1 1-200 = target: T2, Myc-TAK1 1-200 (UniProt O43318); experiment: as above
T2 sequence: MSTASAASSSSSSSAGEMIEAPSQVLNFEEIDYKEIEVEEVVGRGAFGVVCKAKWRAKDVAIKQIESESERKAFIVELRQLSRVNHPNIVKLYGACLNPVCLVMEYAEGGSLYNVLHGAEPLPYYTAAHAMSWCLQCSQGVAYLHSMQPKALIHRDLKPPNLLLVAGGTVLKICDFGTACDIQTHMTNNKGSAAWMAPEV

Myc-TAK1 1-300 = target: T3, Myc-TAK1 1-300 (UniProt O43318); experiment: as above
T3 sequence: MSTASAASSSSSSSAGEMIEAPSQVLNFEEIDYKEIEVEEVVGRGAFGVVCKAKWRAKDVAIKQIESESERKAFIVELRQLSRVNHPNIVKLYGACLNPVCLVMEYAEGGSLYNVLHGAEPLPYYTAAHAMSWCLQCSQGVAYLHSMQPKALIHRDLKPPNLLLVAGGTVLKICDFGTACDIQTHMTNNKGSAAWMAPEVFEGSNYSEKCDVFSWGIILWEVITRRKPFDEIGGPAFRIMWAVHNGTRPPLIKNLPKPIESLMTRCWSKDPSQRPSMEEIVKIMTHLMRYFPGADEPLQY

Myc-TAK1 1-400 = target: T4, Myc-TAK1 1-400 (UniProt O43318); experiment: as above
T4 sequence: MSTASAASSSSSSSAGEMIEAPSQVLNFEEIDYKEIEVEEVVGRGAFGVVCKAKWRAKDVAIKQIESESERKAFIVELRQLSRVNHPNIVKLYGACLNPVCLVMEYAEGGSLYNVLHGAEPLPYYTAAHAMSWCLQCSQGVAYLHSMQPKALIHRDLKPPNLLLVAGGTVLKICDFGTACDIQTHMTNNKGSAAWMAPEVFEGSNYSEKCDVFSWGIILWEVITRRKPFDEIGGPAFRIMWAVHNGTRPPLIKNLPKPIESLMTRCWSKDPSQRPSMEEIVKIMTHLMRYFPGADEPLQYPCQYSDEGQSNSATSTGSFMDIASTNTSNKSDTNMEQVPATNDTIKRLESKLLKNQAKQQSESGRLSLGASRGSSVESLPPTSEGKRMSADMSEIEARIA

Myc-TAK1 1-500 = target: T5, Myc-TAK1 1-500 (UniProt O43318); experiment: as above
T5 sequence: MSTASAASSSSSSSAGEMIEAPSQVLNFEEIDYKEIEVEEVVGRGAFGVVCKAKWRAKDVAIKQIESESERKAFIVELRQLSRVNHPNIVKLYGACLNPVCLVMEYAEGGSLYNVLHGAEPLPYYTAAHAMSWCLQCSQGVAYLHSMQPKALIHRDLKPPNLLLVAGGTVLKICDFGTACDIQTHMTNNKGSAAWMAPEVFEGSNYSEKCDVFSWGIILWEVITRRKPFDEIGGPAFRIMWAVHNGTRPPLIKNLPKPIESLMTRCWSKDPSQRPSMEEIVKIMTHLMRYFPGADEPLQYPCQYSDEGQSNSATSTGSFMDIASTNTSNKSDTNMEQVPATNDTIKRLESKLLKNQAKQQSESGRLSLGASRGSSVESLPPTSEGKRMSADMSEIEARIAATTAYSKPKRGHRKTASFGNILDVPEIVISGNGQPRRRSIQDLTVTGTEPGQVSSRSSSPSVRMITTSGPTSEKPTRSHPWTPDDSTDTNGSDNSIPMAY

[2] = target: T1, Myc-tagged TAK1 wild type; experiment: co-IP; HEK293T cells co-transfected with Myc-TAK1 and Flag-TAB1 or Flag-TAB2 in the presence or absence of different concentrations of HA-CRBN, extracted 38 h after transfection; immunoprecipitated with anti-Myc, immunoblotted with anti-Flag, anti-HA or anti-Myc (Figure 3i,j)
[3] = target: T6, Flag-tagged TAK1 (transforming growth factor-beta-activated kinase 1) (UniProt O43318); experiment: co-IP; HEK293T cells co-transfected, extracted 38 h after transfection; immunoprecipitated with anti-Flag antibody, immunoblotted with anti-Flag or anti-HA
T6 sequence: T1 sequence

Flag-TRAF6 260-522 = target: T7, Flag-TRAF6 260-522 (UniProt Q9Y4K3); experiment: as above
T7 sequence: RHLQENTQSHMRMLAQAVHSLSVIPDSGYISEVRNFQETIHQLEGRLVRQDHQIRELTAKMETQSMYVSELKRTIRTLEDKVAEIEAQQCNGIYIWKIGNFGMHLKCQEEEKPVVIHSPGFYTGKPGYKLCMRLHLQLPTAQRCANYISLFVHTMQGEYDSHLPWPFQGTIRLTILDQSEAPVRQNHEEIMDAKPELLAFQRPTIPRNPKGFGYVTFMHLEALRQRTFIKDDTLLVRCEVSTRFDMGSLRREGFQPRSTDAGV

Flag-TRAF6 110-522 = target: T8, Flag-TRAF6 110-522 (UniProt Q9Y4K3); experiment: as above
T8 sequence: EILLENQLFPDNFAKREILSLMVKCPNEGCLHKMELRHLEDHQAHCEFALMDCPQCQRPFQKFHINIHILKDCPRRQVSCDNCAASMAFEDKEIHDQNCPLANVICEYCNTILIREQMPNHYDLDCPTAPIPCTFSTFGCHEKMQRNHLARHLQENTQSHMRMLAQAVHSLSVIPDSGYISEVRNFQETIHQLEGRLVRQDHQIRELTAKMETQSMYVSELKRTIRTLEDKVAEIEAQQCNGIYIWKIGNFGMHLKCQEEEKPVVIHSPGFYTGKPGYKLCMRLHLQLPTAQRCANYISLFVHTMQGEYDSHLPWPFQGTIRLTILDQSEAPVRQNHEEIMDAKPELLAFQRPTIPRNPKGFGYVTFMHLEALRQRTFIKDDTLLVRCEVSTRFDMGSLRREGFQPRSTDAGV

Flag-TRAF6 349-522 = target: T9, Flag-TRAF6 349-522 (UniProt Q9Y4K3); experiment: as above
T9 sequence: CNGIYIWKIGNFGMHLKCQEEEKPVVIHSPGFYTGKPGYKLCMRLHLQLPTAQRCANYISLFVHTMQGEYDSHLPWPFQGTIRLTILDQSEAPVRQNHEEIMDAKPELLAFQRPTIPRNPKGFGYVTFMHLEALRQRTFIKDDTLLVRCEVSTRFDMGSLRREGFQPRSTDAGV

[4] = target: T10, Flag-tagged TAB1 (TAK1-binding protein 1) (UniProt Q15750); experiment: as above
T10 sequence: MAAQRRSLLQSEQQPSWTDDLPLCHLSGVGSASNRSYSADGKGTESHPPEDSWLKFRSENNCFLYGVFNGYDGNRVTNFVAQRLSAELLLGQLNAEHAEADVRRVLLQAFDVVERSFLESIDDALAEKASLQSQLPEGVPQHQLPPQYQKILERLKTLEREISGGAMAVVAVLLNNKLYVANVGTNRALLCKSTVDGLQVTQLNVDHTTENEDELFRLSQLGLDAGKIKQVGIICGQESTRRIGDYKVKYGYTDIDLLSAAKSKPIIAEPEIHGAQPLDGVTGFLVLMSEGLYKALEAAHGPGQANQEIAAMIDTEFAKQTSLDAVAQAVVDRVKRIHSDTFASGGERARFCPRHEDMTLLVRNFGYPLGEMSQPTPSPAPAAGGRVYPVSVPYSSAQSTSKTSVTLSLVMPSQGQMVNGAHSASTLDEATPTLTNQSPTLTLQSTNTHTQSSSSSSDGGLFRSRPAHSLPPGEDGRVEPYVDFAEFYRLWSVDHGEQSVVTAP

Substance | binding [1] | binding (Myc-TAK1 1-200) | binding (Myc-TAK1 1-300) | binding (Myc-TAK1 1-400) | binding (Myc-TAK1 1-500) | binding [2] | binding [3] | binding (Flag-TRAF6 260-522) | binding (Flag-TRAF6 110-522) | binding (Flag-TRAF6 349-522) | binding [4]
Flag-tagged CRBN (Cereblon) (from UniProt Q96SW2 1-442) | binds | no binding | no binding | binds | binds |  |  |  |  |  | 
HA-tagged CRBN (Cereblon) (from UniProt Q96SW2 1-442) |  |  |  |  |  | binds | binds | no binding | binds | no binding | no binding
